The results in this text go back to PubChem BioAssay AID256 (DTP/NCI, 2004).

Toxic doses and inconclusive results are not listed. Certain results were filed several times, with different values. The list is limited to them. An entry can have further records. Values that stand side by side are repeated measurements (runs, samples, wells, individuals or studies).

In the assay the test system is CD2F1 mice, L1210 leukemia ip, survival T/C. As to the kind of experiment: NCI In Vivo Anticancer Drug Screen. Data for tumor model L1210 Leukemia (intraperitoneal) in CD2F1 (CDF1) mice. Conditions: higher = longer survival. The procedure:
The antitumor activity of compounds was measured in mice bearing transplantable tumors. Survival or tumor size were measured and the results are expressed as the measurement made in the treated group (T) divided by the measurement made in the vehicle treated control group (C). The tumor model used in this assay is L1210 Leukemia (intraperitoneal) in CD2F1 (CDF1) mice

For the compound `NC1CCCCC1N.O=S(=O)([O-])c1ccccc1S(=O)(=O)[O-].[Pt+4]`, for the setting “endpoint: median survival time, dose: 3.12 mg/kg/injection, schedule: Q04DX003 (ip), vehicle: saline”, the T/C is 121 % of control and 150 % of control. In the case of `CN1N=C(N)c2cn(C3OC(COP(=O)(O)O)C(O)C3O)c3ncnc1c23` (stereo not given), where the note is “endpoint: mean survival time, dose: 100.0 mg/kg/injection, schedule: Q01DX009 (ip), vehicle: water”, the T/C was 114 % of control and 150 % of control. Regarding `Cc1cc(NCCCCCCCNc2cc(C)nc3cc(N)ccc23)c2ccc(N)cc2n1`, the T/C (endpoint: mean survival time, dose: 3.12 mg/kg/injection, schedule: Q01DX009 (ip), vehicle: saline with Tween-80) was 121 % of control and 151 % of control. For the compound `CCC1(O)C(=O)OCc2c1cc1n(c2=O)Cc2cc3cc(Cl)ccc3nc2-1` (stereo not given), for the setting “endpoint: median survival time, dose: 20.0 mg/kg/injection, schedule: Q04DX002 (ip), vehicle: saline with Tween-80”, the T/C was 115 % of control and 158 % of control. Consider `COc1cc(NCc2ccc3nc(N)nc(N)c3c2C)cc(OC)c1OC`, for which the T/C (endpoint: median survival time, dose: 80.0 mg/kg/injection, schedule: Q01DX009 (ip), vehicle: sodium bicarbonate) was 102 % of control and 196 % of control.
